The whole screen tested about 44,000 compounds, of which about 340 (0.77%) were called active. Roughly 5% stayed inconclusive and do not appear here. Calls come from the whole dose curve; as a rule, active = well fitted inhibition curve with a large enough effect; inconclusive = small, poorly fitted or top-dose-only effect; inactive = flat fitted curve, though single readings scatter. The list shows a part of the results.
Potency is the fitted concentration of half-maximal effect.

The nature of this assay: Acumen qHTS Assay for Inhibitors of the mTORC1 Signaling Pathway in MEF (Tsc2-/-, p53-/-) Cells: Sytravon.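 For activity change, negative = inhibition: plate controls were DMSO for no effect and rapamycin for full effect.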 Note: nearly all actives have a fitted effect of over 50% in size. The conditions noted are these: phospho-rpS6 immunofluorescence/PI, 24 h; series mostly up to 38.3 µM; activity change, negative = inhibition: at the top concentration. Put shortly: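 Tsc2-/-, p53-/- MEFs (empty-vector stable line) in DMEM + 10% FBS were treated with compounds 24 h at 37 degree Celsius, fixed, and immunostained for phospho-rpS6 (Alexa-488) with propidium iodide counterstain. Laser-scanning cytometry gave % positive cells, normalized against 7.5 nM rapamycin and DMSO.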
A general note: In qHTS, concentration-response curves come from the screen itself.
`CCCCNC(=O)c1ccc2c(c1)N(Cc1ccc(F)cc1)C(=O)c1ccccc1S2=O` (configuration not stated): the “activity change, negative = inhibition” value is inactive: -3.79%.

`Cc1ccc(NC(=O)/C=C\C(=O)N(c2ccc(C(C)C)cc2)C(C(=O)NCc2ccco2)c2ccc(Cl)cc2)cc1` (configuration not stated): the “activity change, negative = inhibition” value was inactive: -3.06%.

Take `CCOCCCNC(=O)c1ccc(-n2c(-c3ccccc3)cc3c2CCCC3)cc1`: the “activity change, negative = inhibition” value was inactive: -13.1%.

With `Cc1cccc(C(=O)OCc2cc(=O)n3ccsc3n2)c1`, the “activity change, negative = inhibition” value is inactive: -2.52%.

As to `COc1ccc(Cn2ccc3nc(C)c(C(=O)Nc4ccc(OC)cc4)cc3c2=O)cc1`, the “activity change, negative = inhibition” value is inactive: -14%.

For `COc1ccc(CNC(=O)C2CCN(S(=O)(=O)c3c(C)noc3/C=C/c3ccccc3F)CC2)cc1`, the “activity change, negative = inhibition” value is inactive: 2.32%.

Take `Cc1ccc(-n2c(C)cc(C(=O)C(=O)Nc3ccccc3)c2C)c(C)c1`: the “activity change, negative = inhibition” value is inactive: -3.91%.

As to `CC(C(=O)NCCSCc1cccc(Cl)c1)N(c1ccccc1)S(C)(=O)=O` (configuration not stated), the “activity change, negative = inhibition” value is inactive: -19.5%.

Take `CC(=O)Nc1nc2n(n1)C(c1ccc(F)cc1)C=C(c1ccc(Cl)cc1)N2` (configuration not stated): the “activity change, negative = inhibition” value was inactive: 0.666%.

Consider `COc1ccc(CCNC(=O)CCn2c(=O)c3ccccc3n(Cc3ccccc3F)c2=O)cc1OC`, for which the “activity change, negative = inhibition” value was inactive: -14.9%.

Regarding `CC(=O)c1cccc(NC(=O)C2CCN(S(=O)(=O)c3ccc4c(c3)CCCN4C(C)=O)CC2)c1`, the “activity change, negative = inhibition” value is inactive: -4.07%.

As for `CC1CCN(c2nn3c(=O)c(C(=O)NCCCOC(C)C)cnc3s2)CC1`, the “activity change, negative = inhibition” value is inactive: -15.9%.

Take `Cc1c(C(=O)OCc2ccccc2)[nH]c2c1C(=O)CC(c1ccc(C(C)(C)C)cc1)C2` (configuration not stated): the “activity change, negative = inhibition” value is inactive: 0.197%.

`CCc1cccc(NC(=O)c2cc3c(=O)n(Cc4ccccc4)ccc3nc2C)c1`: the “activity change, negative = inhibition” value is inactive: -11.5%.

Consider `Cc1ccc(CN2CCCn3nc(C(=O)NCCc4ccccc4C)cc3C2=O)cc1`, for which the “activity change, negative = inhibition” value is inactive: 0%.

For `CC(C)c1ccc(NC(=O)C2CCN(C(=O)c3ccc(F)cc3)CC2)cc1`, the “activity change, negative = inhibition” value is inactive: -12.1%.

Consider `COc1cc(C(=O)Nc2ccccc2-c2nc(-c3ccccc3)no2)cc(OC)c1OC`, for which the “activity change, negative = inhibition” value was inactive: -9.38%.

Regarding `Cc1ccc(C)c(NC(=O)CN(C)S(=O)(=O)c2cccc3nsnc23)c1`, the “activity change, negative = inhibition” value was inactive: -0.481%.

Regarding `Cc1ccc(-n2nc(C(=O)Nc3ccc(F)cc3F)c3c4ccccc4n(C)c3c2=O)cc1`, the “activity change, negative = inhibition” value is inactive: -7.72%.

Consider `Cc1cccc(N(C)c2nc3ccc(C(=O)c4ccccc4)cc3n3c(C)nnc23)c1`, for which the “activity change, negative = inhibition” value was inactive: 0.654%.

For `CC(C)(C)C1CCc2c(sc(NC(=O)c3cc4ccccc4c(=O)o3)c2C(N)=O)C1` (configuration not stated), the “activity change, negative = inhibition” value is inactive: 1.38%.

Take `Cc1ccc(C)c(NC(=O)Cn2c(=O)n(CCC(C)C)c(=O)c3cccnc32)c1`: the “activity change, negative = inhibition” value is inactive: 0.716%.

Turning to `CCCCCOc1ccc(/C=C/C(=O)Nc2sc(C)c(C)c2C(=O)OCC)cc1OC`, the “activity change, negative = inhibition” value is inactive: 2.75%.

With `COc1ccccc1NC(=O)Cn1cc(S(=O)(=O)Cc2ccccc2)c2ccccc21`, the “activity change, negative = inhibition” value is inactive: -8.67%.

For the compound `CCN(CC)CCNC(=O)Cn1ncc2c3ccccc3n(Cc3ccc(Cl)cc3)c2c1=O`, the “activity change, negative = inhibition” value was inactive: -6.3%.

With `Cc1ccc(-c2csc(-c3nc(-c4ccc(Br)s4)cs3)n2)cc1`, the “activity change, negative = inhibition” value is inactive: -1.93%.

Regarding `COc1ccc(NC(=O)Cn2nnc(C(=O)NCc3cccs3)c2N)cc1`, the “activity change, negative = inhibition” value was inactive: -4.76%.

Turning to `Cc1ccc(NC(=O)CSc2nc(=O)n(Cc3cccnc3)c3c2CCC3)cc1F`, the “activity change, negative = inhibition” value was inactive: -0.342%.

With `COc1ccc(Cc2nc3ccc(C(=O)NCc4ccccc4C)cc3o2)cc1`, the “activity change, negative = inhibition” value is inactive: -6.41%.

With `COc1ccc(NC(=O)CN2C(=O)CC(c3ccc(C)c(C)c3)=Nc3ccccc32)cc1OC`, the “activity change, negative = inhibition” value is inactive: -15.6%.

With `CCC(CC)C(=O)Nc1ccc2nc(SCC(=O)N3CCCC3)sc2c1`, the “activity change, negative = inhibition” value was inactive: 0%.

Turning to `CCc1cccc(C)c1NC(=O)c1cc(S(=O)(=O)N(Cc2ccc(C(=O)OC)cc2)Cc2ccc(OC)c(OC)c2)ccc1F`, the “activity change, negative = inhibition” value is inactive: 7.9%.

Regarding `Cc1ccccc1Oc1nc2ccccn2c(=O)c1/C=C(\C#N)c1nc2ccccc2[nH]1`, the Potency is active: 9.27 µM.

For the compound `CC(C)CCNC(=O)CN1C(=O)CSc2ccc(S(=O)(=O)N3CCC(C)CC3)cc21`, the “activity change, negative = inhibition” value is inactive: 6.21%.

`Cc1ccc2nc(-c3cccs3)c(Nc3c(C)cccc3C)n2c1`: the “activity change, negative = inhibition” value was inactive: -14.8%.

In the case of `CN(C)c1ccc(/C=C/c2nc(-c3ccccc3O)n(-c3ccccc3)n2)cc1`, the “activity change, negative = inhibition” value is inactive: 4%.

For the compound `Cc1c(C(=O)NCc2ccc(F)cc2)oc2ccc(S(=O)(=O)N3CCCCC3)cc12`, the “activity change, negative = inhibition” value is inactive: -7.21%.

Regarding `CCOC(=O)C1CCCN(c2nc3c(S(=O)(=O)c4ccc(CC)cc4)nnn3c3ccsc23)C1` (configuration not stated), the “activity change, negative = inhibition” value was inactive: 3.52%.

With `Cc1ccc2c(c1)c1c(c(=O)n(-c3cccc(Cl)c3)c(=O)n1CC(=O)NCC1CCCO1)n2C` (configuration not stated), the “activity change, negative = inhibition” value was inactive: -5.74%.

Turning to `Cn1c(=O)[nH]c(=O)c2c1nc(N1CCOCC1)n2Cc1ccccc1`, the “activity change, negative = inhibition” value was inactive: -6.89%.

In the case of `CCOC(=O)Cc1ccc(NC(=O)Nc2c[nH]c(=O)[nH]c2=O)cc1`, the “activity change, negative = inhibition” value is inactive: 1.12%.

With `CCc1cccc(NC(=O)CCc2nc3cccnc3n2Cc2ccc(OC)cc2)c1`, the “activity change, negative = inhibition” value is inactive: -13.3%.

On to `CC(=O)N1CCc2cc(S(=O)(=O)NC(Cc3ccccc3)C(=O)Nc3cccc(C)c3)ccc21` (configuration not stated), for which the “activity change, negative = inhibition” value is inactive: -6.77%.

For `Oc1c(C(c2ccc(F)cc2)N2CCOCC2)sc2nc(-c3ccco3)nn12` (configuration not stated), the “activity change, negative = inhibition” value was inactive: 3.02%.

For the compound `O=C(Cn1ncc2c([nH]c3ccccc32)c1=O)Nc1cccc(C(F)(F)F)c1`, the “activity change, negative = inhibition” value is inactive: 0.79%.

`Cc1cc(C)cc(N2CC(c3nc(-c4cccc(Cl)c4)no3)CC2=O)c1` (configuration not stated): the “activity change, negative = inhibition” value was inactive: -13.5%.

In the case of `COc1ccc(CCNc2nccn(-c3ccc(C)c(C)c3)c2=O)cc1OC`, the “activity change, negative = inhibition” value was inactive: -2.65%.
